Measured values published in paper PMC4336329 (PLoS ONE, 2015).
In all, about 310,000 compounds went through this assay and about 14,000 (4.5%) showed an effect of 50% or more. The effect is printed as a negative number. The list shows a part of the results.

biological target: human ether-à-go-go-related gene (hERG) potassium channel (human, UniProt Q12809); experiment: primary screen, population patch clamp on CHO cells stably expressing hERG
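Further: peak tail current of the secondary pulse compared with the same well before compound.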

Sequence of human ether-à-go-go-related gene (hERG) potassium channel (Q12809 whole entry, looked up): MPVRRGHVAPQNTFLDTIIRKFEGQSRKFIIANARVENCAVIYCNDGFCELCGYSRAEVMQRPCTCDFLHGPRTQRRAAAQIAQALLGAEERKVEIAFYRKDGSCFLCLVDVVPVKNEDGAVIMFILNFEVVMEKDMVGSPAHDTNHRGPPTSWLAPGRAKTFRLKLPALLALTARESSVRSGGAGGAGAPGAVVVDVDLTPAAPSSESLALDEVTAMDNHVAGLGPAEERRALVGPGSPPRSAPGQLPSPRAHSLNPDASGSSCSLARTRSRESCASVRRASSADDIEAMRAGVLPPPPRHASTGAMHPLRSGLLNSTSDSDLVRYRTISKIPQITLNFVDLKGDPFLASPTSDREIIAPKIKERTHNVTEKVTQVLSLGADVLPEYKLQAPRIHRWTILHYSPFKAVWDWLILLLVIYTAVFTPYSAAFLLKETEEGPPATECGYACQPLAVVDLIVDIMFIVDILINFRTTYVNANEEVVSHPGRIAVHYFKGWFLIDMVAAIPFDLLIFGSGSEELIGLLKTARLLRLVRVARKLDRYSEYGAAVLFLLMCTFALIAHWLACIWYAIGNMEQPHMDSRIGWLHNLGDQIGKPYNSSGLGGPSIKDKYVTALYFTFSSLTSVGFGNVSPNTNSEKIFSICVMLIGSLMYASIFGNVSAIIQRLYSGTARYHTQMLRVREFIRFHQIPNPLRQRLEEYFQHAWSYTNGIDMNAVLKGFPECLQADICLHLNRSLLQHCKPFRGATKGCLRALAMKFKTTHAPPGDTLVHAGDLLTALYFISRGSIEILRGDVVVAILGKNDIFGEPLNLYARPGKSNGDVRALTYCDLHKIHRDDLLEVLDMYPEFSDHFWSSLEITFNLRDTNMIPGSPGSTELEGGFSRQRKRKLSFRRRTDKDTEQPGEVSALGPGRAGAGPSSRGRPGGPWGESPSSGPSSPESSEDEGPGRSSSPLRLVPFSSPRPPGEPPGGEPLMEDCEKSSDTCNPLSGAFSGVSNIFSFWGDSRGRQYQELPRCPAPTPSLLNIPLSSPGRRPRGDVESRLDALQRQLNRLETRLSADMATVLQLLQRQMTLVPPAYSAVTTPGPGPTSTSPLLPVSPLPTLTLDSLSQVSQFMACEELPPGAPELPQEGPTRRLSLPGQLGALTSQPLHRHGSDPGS

SMILES | hERG current change (%, negative = inhibition) at 10uM [%]
CC(C)Sc1n[nH]c(=O)n1-c1ccccc1 | 7.72
O=C(O)CC1(c2ccccc2)C(=O)c2ccccc2C1=O | 16.9
COc1ccc(S(=O)(=O)N2CCCCC2)cc1NC(=O)CN(C)C1CCCCC1 | -8.17
COc1ccccc1/C=C1\SC(N2CCC(C)CC2)=NC1=O | -14.5
Cc1c(NC2=NC3(CCCCC3)Cc3ccccc32)c(=O)n(C)n1-c1ccccc1 | -29.8
COc1cccc(C(=O)Nc2cc(NC(=O)c3cccs3)ccc2C)c1OC | -14
CC(C)C(OC(=O)CCC(=O)Nc1nccs1)C(=O)NC1CCCCC1 (stereo not drawn) | 12.3
CCCCCC1CCC(C(=O)NCCN2CCOCC2)CC1 (stereo not drawn) | 6.86
CCCCCn1c(CN2CCN(CCO)CC2)nc2c1c(=O)n(C)c(=O)n2C | -17.9
COc1ccc2nc(SCC(=O)NC3(C#N)CCCCC3)[nH]c2c1 | 5.77
COc1ccc(S(=O)(=O)N2Cc3ccccc3CC2C(=O)Nc2nccs2)cc1 (stereo not drawn) | -20.7
CCOC(=O)N1CCN(C(=O)CS(=O)Cc2nc(-c3ccc(C)cc3)oc2C)CC1 (stereo not drawn) | 0.278
Cl.O=C(CCN1CCC(c2ccccc2)C1)c1cccs1 (stereo not drawn) | -33.8
CN(C)c1ccc([N+](=O)[O-])cc1C(=O)NCC(c1ccco1)N(C)C (stereo not drawn) | 5.26
Cc1ccc(C(=O)N/N=C/c2cccc3ccccc23)cn1 | -12
CC1CCN(c2nncc3ccccc23)CC1 | -5.35
O=C1CN(C(=O)c2ccccc2F)C(c2ccccc2)c2cc(Cl)ccc2N1 (stereo not drawn) | -36.5
CCOc1ccccc1NC(=O)C1CCN(C(=O)C2CC(=O)N(c3ccc(C)cc3)C2)CC1 (stereo not drawn) | -13.2
COc1ccc(CNc2cc(C)ccn2)cc1 | 2.79
CC(/C=C/c1ccc2c(c1)OCO2)=N/NC(=O)c1cccnc1 | 2.82
Cc1nc2ccccc2c(=O)n1NC(=O)c1ccccc1[N+](=O)[O-] | 6.04
O=C(Cc1ccccc1)Nc1cc(Cl)ccc1Sc1ccccc1 | 6.6

SMILES | hERG current change (%, negative = inhibition) at 10uM [%]
O=C(CSc1ccccc1C(=O)O)NCc1ccco1 | 12.8
O=C(Nc1ccccc1C(F)(F)F)N1CCN(c2ccccn2)CC1 | 9.98
Cc1ccc(CNC(=O)[C@H](C)N2C(=O)N3CCc4c([nH]c5ccccc45)[C@@]3(C)C2=O)cc1 | 11.5
Cn1cc(S(=O)(=O)N2CCN(C(=O)c3ccco3)CC2)c(=O)n(C)c1=O | -6.81
COc1cccc(-n2c(SCC(=O)NCc3cccs3)nc3ccccc3c2=O)c1 | -2.74
CCC12CN3CC(CC)(CN(C1)C31C(=O)N(C)c3ccc(C)cc31)C2=O (stereo not drawn) | 19.4
Cc1ccccc1-c1nc(C#N)c(N2CCC(C)CC2)o1 | 14.4
O=C(O)c1ccc2ncsc2c1 | 9.83
COc1ccc(NC2c3ccccc3C(=O)N2c2ccccn2)cc1Cl (stereo not drawn) | -5.24
CCS(=O)(=O)Nc1ccc(C2=NN(C(=O)c3ccco3)C(c3ccco3)C2)cc1 (stereo not drawn) | -7.66
COc1ccc2nc(N3CCCCC3)c(C#N)cc2c1 | 30
COc1ccc(C(c2c(O)c3ccccc3oc2=O)c2c(C)n(C)n(-c3ccccc3)c2=O)cc1 (stereo not drawn) | 4.91
Cc1ccc(/C=N/n2c(-c3ccco3)n[nH]c2=S)s1 | 14.1
O=C1NC(=S)N(c2ccc(F)cc2)C(=O)/C1=C/c1ccccc1O | 8.34
CCN1C(=O)c2ccccc2S(=O)c2ccc(C(=O)N3CCOCC3)cc21 (stereo not drawn) | 10.3
O=C(CN1CCCCC1)N1CCN(S(=O)(=O)c2ccccc2)C1 | 7.89
O=C(COC(=O)c1ccc(Cl)nc1)NC(=O)c1ccccc1 | 2.33
CCOc1ccc(CN2CCC(C(=O)N3CCN(c4ccccc4F)CC3)CC2)cc1OC.O=C(O)C(=O)O | -64.8
Clc1ccc(Cc2nn3c(Cn4nnc5ccccc54)nnc3s2)cc1 | -10.7
O=C(NCc1cccnc1)c1cn(-c2ccccc2)nc1-c1cccs1 | -32
O=C(c1cccnc1)N1CCN(S(=O)(=O)c2cccs2)CC1 | -35
O=C(/C=C/c1ccncc1)c1ccc(NC(=O)c2ccccc2F)cc1 | -5.64

SMILES | hERG current change (%, negative = inhibition) at 10uM [%]
NC(=O)Cc1ccc(Nc2nnc(-c3ccccc3)c3ccccc23)cc1 | 1.35
O=C(CN1C(=O)NC2(CCCC2)C1=O)Nc1cc(Cl)ccc1N1CCOCC1 | 0.45
COc1ccc(/C=N/N2CCN(c3ccc(Cl)cc3)CC2)cc1O | 4.74
Cc1noc(C)c1C(=O)Nc1ccc(N(C)C)cc1 | 18.8
O=C(NCCCN=C1NS(=O)(=O)c2ccccc21)c1ccco1 | -10
COc1ccc(C(C)(C)C)cc1NC(=O)Nc1ccc2c(c1)OCO2 | 16.8
N#Cc1ccc(OCC(O)CS(=O)(=O)c2ccc(F)cc2)cc1 (stereo not drawn) | -20.7
NS(=O)(=O)c1ccc(CCNC(=O)C2(S(=O)(=O)c3ccc(Cl)cc3)CC2)cc1 | 11.8
Cc1oc2cc(O)cc(O)c2c(=O)c1-c1ccc2c(c1)OCCCO2 | 3.88
[O-][n+]1c2ccccc2[n+]([O-])c2cc(O)ccc21 | 6.19
COC(=O)C1CCN(C(=O)CC(NC(=O)C(F)(F)F)c2cccs2)CC1 (stereo not drawn) | 10.6
COc1cc(COC(=O)Oc2ccc(CNC(C)=O)cc2OC)c([N+](=O)[O-])cc1OC | -20.6
Cc1cc([N+](=O)[O-])nn1Cc1noc(C(=O)NCc2ccc3c(c2)OCO3)n1 | -11.3
CC(C)C[C@H](N)c1cn([C@@H](Cc2cc3ccccc3[nH]2)C(=O)N2CCNCC2)nn1.Cl | 16.4
Cc1csc(=O)n1CCC(=O)OCC(=O)c1ccc(Br)cc1 | -18.4
COc1ccc(C(C)NC(=O)CCc2ccccc2)cc1 (stereo not drawn) | 10
Cc1[nH]n(-c2ccccc2)c(=O)c1/C=N/c1nn[nH]n1 | 11
COc1cccc(C(NC(C)=O)c2ccc3cccnc3c2O)c1 (stereo not drawn) | 6.66
Cc1nc(NS(=O)(=O)c2ccccc2)sc1C(=O)NN | 14.3
C/C(=N/NC(=O)C1CC1(c1ccccc1)c1ccccc1)c1ccco1 (stereo not drawn) | 5.78
Cc1cccc(NC(=O)CNC(=O)c2ccc(-n3cncn3)c([N+](=O)[O-])c2)c1C | -9.18
CCC(=O)Nc1nnc(-c2ccc(Cl)s2)o1 | 7.77

SMILES | hERG current change (%, negative = inhibition) at 10uM [%]
CC(=O)c1c(C)[nH]c(C(=O)CN2CCN(S(=O)(=O)c3ccccc3)CC2)c1C | 6.67
Cc1ccc(C(=O)N(CN2CCCC2=O)c2ccccc2)cc1C | -2.65
COc1ccc2cc(CCC(C)=O)ccc2c1 | 7.65
S=c1nc(-c2sccc2OCc2ccc(Cl)cc2Cl)[nH][nH]1 | 13.1
NC(=O)C1CCN(C(=O)Cc2ccc([N+](=O)[O-])cc2)CC1 | -1.06
O=C1NC(=O)N(c2ccccc2F)C(=O)/C1=C/c1cn(CC(=O)N2CCOCC2)c2ccccc12 | 16.1
Cc1ccccc1NS(=O)(=O)c1ccc(C(=O)N2CCCCCCC2)cc1 | -28.3
O=C(NCc1ccccc1C(F)(F)F)C12CN(Cc3ccccc3)CC1C(c1ccc([N+](=O)[O-])cc1)=NO2 (stereo not drawn) | -3.04
Cc1ccc(Cn2c(CCNc3nc(-c4ccc(C)cc4)cs3)nc3cc(C(=O)NCCCO)ccc32)cc1 | -7.18
COCCCNC(=O)CCc1nc(-c2ccccc2)no1 | 9.36
CCCCCc1nc2ccccc2c(=O)n1N | -4.28
O=S1(=O)[C@H]2C[C@@H]3C=C[C@@]2(CN1Cc1cccc(F)c1)O3 | 2.94
Cc1nc2ccc(S(=O)(=O)NC(C(=O)NCc3cccs3)C(C)C)cc2s1 (stereo not drawn) | 11.7
CC1CN(C)C(c2ccccc2)C(C)C12NC(=O)NC2=O (stereo not drawn) | 12.8
CCOC(=O)c1c(C)n(C)c2ccc(O)c(CN3CCCCC3)c12 | -55.5
COc1ccc(Nc2nccc(-c3ccc([N+](=O)[O-])cc3)n2)cc1 | 16.4
CC1CC1C(=O)OCC(=O)Nc1cccc([N+](=O)[O-])c1 (stereo not drawn) | -1.09
Cc1ccc2oc(C(=O)N3CCC(O)(c4cccc(C(F)(F)F)c4)CC3)c(C)c2c1 | 9.54
Cc1ccc(S(=O)(=O)Nc2ccc(C(=O)NCc3ccncc3)cc2)cc1 | 5.68
O=C(c1ccco1)N1CCN(C(=O)c2cc(-c3ccccn3)nc3ccccc23)CC1 | -34.8
NC(=O)CC(NC(=O)c1cccc(Br)c1)c1ccc(N2CCC(N3CCCC3)CC2)c([N+](=O)[O-])c1 (stereo not drawn) | -2.58
